± gives the standard error. Variants at the floor of the assay are shown more often than the library holds them.
B1: glmS ribozyme (parent)
chain: AUAAAAGCGCCAGAACUACAGAAAUGUAGUUGACGAGGAGGAGGUUUAUCGAAUUUUCGGCGGAUGCCUCCAAA

Tests used:
Conditions in all cases: with glucosamine-6-phosphate
glucosamine-6-phosphate [1] = variants of: B1; assay: self-cleavage kobs at 40 uM GlcN6P; higher = faster cleavage; RNA array
How it was run: (§1)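 Barcoded ribozyme variants, transcribed in situ by E. coli RNA polymerase on sequenced MiSeq chips, were followed via a hybridised Cy3 probe at 37 °C. Glucosamine-6-phosphate ranged from 40 μM to 10 mM in HEPES/KCl/Mg(OAc)2 buffer. kobs came from decay fits to per-tile medians, and kcat and KM from weighted Michaelis–Menten fits.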

glucosamine-6-phosphate [2] = variants of: B1; assay: self-cleavage kobs at 10000 uM GlcN6P; higher = faster cleavage; RNA array
How it was run: as §1

glucosamine-6-phosphate [3] = variants of: B1; assay: self-cleavage kobs at 640 uM GlcN6P; higher = faster cleavage; RNA array
How it was run: as §1

glucosamine-6-phosphate [4] = variants of: B1; assay: self-cleavage kobs at 160 uM GlcN6P; higher = faster cleavage; RNA array
How it was run: as §1

glucosamine-6-phosphate [5] = variants of: B1; assay: self-cleavage kobs at 2500 uM GlcN6P; higher = faster cleavage; RNA array
How it was run: as §1

Row | Variant | self-cleavage kobs at 40 uM GlcN6P (glucosamine-6-phosphate [1]) [s⁻¹] | self-cleavage kobs at 10000 uM GlcN6P (glucosamine-6-phosphate [2]) [s⁻¹] | self-cleavage kobs at 640 uM GlcN6P (glucosamine-6-phosphate [3]) [s⁻¹] | self-cleavage kobs at 160 uM GlcN6P (glucosamine-6-phosphate [4]) [s⁻¹] | self-cleavage kobs at 2500 uM GlcN6P (glucosamine-6-phosphate [5]) [s⁻¹]
1 | G9C C67A C70A | < 1e-05 | < 1e-05 |  |  | 
2 | G9A A15U | < 1e-05 |  | < 1e-05 | < 1e-05 | < 1e-05
3 | C10U U30G | < 1e-05 |  |  |  | 
4 | C10G G43A | < 1e-05 | < 1e-05 | < 1e-05 | < 1e-05 | 
5 | C10A A53C G59A | < 1e-05 |  |  |  | 
6 | C10U C16U A33G G37A U49G G62U U69G | < 1e-05 |  |  |  | 
7 | G9A A14C A48C | < 1e-05 |  |  |  | 
8 | C10G C34U G38C A64C C67U | < 1e-05 | < 1e-05 |  |  | 
9 | G9A G44U | < 1e-05 | < 1e-05 | < 1e-05 | < 1e-05 | 
10 | G9A G40U C50U A53U | < 1e-05 |  |  |  | 
11 | G9U G13U A64C C71A | < 1e-05 | < 1e-05 |  |  | 
12 | C10G G38A | < 1e-05 |  | < 1e-05 |  | 
13 | C10G G51C G59U | < 1e-05 |  |  |  | 
14 | G9U G29U U57G C61U | < 1e-05 |  |  |  | 
15 | C8U G62U U69G | 0.00021 ± 7.2e-05 | 0.000358 ± 0.00015 |  |  | 
16 | C11G C34G G43C G59A | < 1e-05 | < 1e-05 |  |  | 
17 | C8U C67U | < 1e-05 |  | < 1e-05 | < 1e-05 | < 1e-05
18 | C10U A15C | < 1e-05 |  |  | < 1e-05 | 
19 | C10A C11U U31C A33C U54A G60C | < 1e-05 |  |  |  | 
20 | C10U A33U U54C | < 1e-05 |  |  |  | 
21 | C11G C34A | < 1e-05 | < 1e-05 |  | < 1e-05 | < 1e-05
22 | G9A A42C A53C | < 1e-05 | < 1e-05 |  |  | 
23 | G9U A36U | < 1e-05 |  | < 1e-05 |  | 
24 | G9A A53G G59C | < 1e-05 | < 1e-05 | < 1e-05 | < 1e-05 | < 1e-05
25 | G9A U56C | < 1e-05 |  | < 1e-05 | < 1e-05 | < 1e-05
26 | G9A G13A A14C C61A | < 1e-05 | < 1e-05 |  |  | 

Row | Variant | self-cleavage kobs at 40 uM GlcN6P (glucosamine-6-phosphate [1]) [s⁻¹] | self-cleavage kobs at 10000 uM GlcN6P (glucosamine-6-phosphate [2]) [s⁻¹] | self-cleavage kobs at 640 uM GlcN6P (glucosamine-6-phosphate [3]) [s⁻¹] | self-cleavage kobs at 160 uM GlcN6P (glucosamine-6-phosphate [4]) [s⁻¹] | self-cleavage kobs at 2500 uM GlcN6P (glucosamine-6-phosphate [5]) [s⁻¹]
27 | C10U G35U G38A A48U | < 1e-05 |  |  |  | 
28 | G9C C10G G62U | < 1e-05 | < 1e-05 |  |  | 
29 | C10G U31C | < 1e-05 |  |  |  | 
30 | C8U G40U C61A G62A | < 1e-05 |  |  |  | 
31 | C10U A36G | < 1e-05 | < 1e-05 | < 1e-05 |  | 
32 | C10U A36U | < 1e-05 |  |  |  | 
33 | G9U G38U G43U C50U | < 1e-05 | < 1e-05 |  |  | 
34 | C10A G38U | < 1e-05 |  |  |  | 
35 | C11U A15G G43A C67G | < 1e-05 | 0.000119 ± 3.5e-05 |  |  | 0.000114 ± 3.9e-05
36 | C8U G38C | < 1e-05 | < 1e-05 | < 1e-05 | < 1e-05 | 
37 | C11G C58A | < 1e-05 | < 1e-05 |  | < 1e-05 | 
38 | C11A A36G A64U C67U C71U | < 1e-05 |  |  |  | 
39 | C10A A36C G62C | < 1e-05 |  |  |  | 
40 | C10U G44A C67A | < 1e-05 |  | < 1e-05 |  | < 1e-05
41 | G9C A52G | < 1e-05 |  |  |  | 
42 | C10G A48C | < 1e-05 | < 1e-05 | < 1e-05 |  | < 1e-05
43 | C8U G41A G59C | < 1e-05 |  |  |  | 
44 | C8U C11U G13U C71U | < 1e-05 | < 1e-05 |  |  | < 1e-05
45 | G9C G32U | < 1e-05 | < 1e-05 | < 1e-05 | < 1e-05 | 
46 | C10A U65C | < 1e-05 |  |  |  | 
47 | C10A A39C | < 1e-05 |  | < 1e-05 |  | 
48 | G9C A64G | < 1e-05 | < 1e-05 | < 1e-05 | < 1e-05 | < 1e-05
49 | C10U G41U U56C C70U | < 1e-05 |  |  |  | 
50 | G9A C68A | < 1e-05 | < 1e-05 | < 1e-05 | < 1e-05 | < 1e-05
51 | C10G A39C | < 1e-05 | < 1e-05 |  | < 1e-05 | < 1e-05
52 | G9C A12U | < 1e-05 |  | < 1e-05 |  | 

Row | Variant | self-cleavage kobs at 40 uM GlcN6P (glucosamine-6-phosphate [1]) [s⁻¹] | self-cleavage kobs at 10000 uM GlcN6P (glucosamine-6-phosphate [2]) [s⁻¹] | self-cleavage kobs at 640 uM GlcN6P (glucosamine-6-phosphate [3]) [s⁻¹] | self-cleavage kobs at 160 uM GlcN6P (glucosamine-6-phosphate [4]) [s⁻¹] | self-cleavage kobs at 2500 uM GlcN6P (glucosamine-6-phosphate [5]) [s⁻¹]
53 | C10G U30A U46C G59U | < 1e-05 | < 1e-05 | < 1e-05 | < 1e-05 | 
54 | G9A A33G | < 1e-05 |  |  | < 1e-05 | < 1e-05
55 | C8U C10A A64C | < 1e-05 |  | < 1e-05 | < 1e-05 | 
56 | G9U U46A C67G | < 1e-05 |  | < 1e-05 |  | < 1e-05
57 | C10G A36U | < 1e-05 |  | < 1e-05 |  | < 1e-05
58 | C10A A33C | < 1e-05 | < 1e-05 | < 1e-05 | < 1e-05 | < 1e-05
59 | C11A A36G G41C C67U | < 1e-05 | < 1e-05 | < 1e-05 |  | < 1e-05
60 | C8U U65C | < 1e-05 |  | < 1e-05 |  | < 1e-05
61 | C10G C16U U49C | < 1e-05 |  | < 1e-05 |  | 
62 | G9C A14U A52C | < 1e-05 |  |  |  | 
63 | C11G G43U G51A | < 1e-05 | < 1e-05 |  |  | 
64 | C11A G63C | < 1e-05 | < 1e-05 | < 1e-05 |  | 
65 | C10A C11U A33U | < 1e-05 | < 1e-05 |  |  | 
66 | C11G U56C | < 1e-05 | < 1e-05 |  |  | 
67 | G9U A14G | < 1e-05 | < 1e-05 |  |  | < 1e-05
68 | G9C A48G U49C C70G | < 1e-05 | < 1e-05 |  |  | 
69 | C10U G66A | < 1e-05 |  |  | < 1e-05 | 
70 | C10G C71G | < 1e-05 | < 1e-05 |  |  | 
71 | G9U A36G A42U G44U | < 1e-05 |  |  |  | 
72 | G9A G40A | < 1e-05 |  | < 1e-05 | < 1e-05 | < 1e-05
73 | C10G G43C C58A | < 1e-05 | < 1e-05 |  |  | 
74 | G9C C58U | < 1e-05 | < 1e-05 | < 1e-05 | < 1e-05 | < 1e-05
75 | C10U G40A A48C | < 1e-05 |  |  |  | 
76 | C11G G43U | < 1e-05 | < 1e-05 | < 1e-05 | < 1e-05 | < 1e-05
77 | G9A G35C | < 1e-05 |  | < 1e-05 | < 1e-05 | 
78 | C11A G51U A52G U57A G66C C70A | 5.04e-05 ± 1.9e-05 | 5e-05 ± 1.4e-05 |  |  | 

Row | Variant | self-cleavage kobs at 40 uM GlcN6P (glucosamine-6-phosphate [1]) [s⁻¹] | self-cleavage kobs at 10000 uM GlcN6P (glucosamine-6-phosphate [2]) [s⁻¹] | self-cleavage kobs at 640 uM GlcN6P (glucosamine-6-phosphate [3]) [s⁻¹] | self-cleavage kobs at 160 uM GlcN6P (glucosamine-6-phosphate [4]) [s⁻¹] | self-cleavage kobs at 2500 uM GlcN6P (glucosamine-6-phosphate [5]) [s⁻¹]
79 | G9U U30C | < 1e-05 | < 1e-05 | < 1e-05 | < 1e-05 | 
80 | C10G G29A U30G G41U G43U U49G | < 1e-05 | < 1e-05 |  |  | 
81 | G9A G40A A48G | < 1e-05 |  |  |  | 
82 | C11G U56C C71U | < 1e-05 | < 1e-05 |  |  | 
83 | C11U A12U U30G U31C G38C U54A | < 1e-05 |  |  |  | 
84 | G9A U45C | < 1e-05 | < 1e-05 |  | < 1e-05 | 
85 | G9A U45G | < 1e-05 | < 1e-05 | < 1e-05 |  | 
86 | C11G G40A U45G | < 1e-05 | < 1e-05 | < 1e-05 |  | < 1e-05
87 | G9C G43A | < 1e-05 | < 1e-05 |  |  | 
88 | G9A U30C | < 1e-05 |  | < 1e-05 | < 1e-05 | < 1e-05
89 | C10A A33U G63A | < 1e-05 | < 1e-05 | < 1e-05 | < 1e-05 | 
90 | C11G C50U | < 1e-05 | < 1e-05 | < 1e-05 |  | 
91 | G9C G29C C61U | < 1e-05 |  |  |  | < 1e-05
92 | G9U G13U A36U | < 1e-05 |  |  |  | 
93 | C11A G32U C34G A36C C58A G60C | < 1e-05 |  |  |  | 
94 | C10A G37C G38A A64U U65C | < 1e-05 |  |  |  | < 1e-05
95 | G9C C11U U31C A36G G38A C50G U69G C70G | 0.00075 ± 0.00022 | 0.000818 ± 0.00021 |  |  | 
96 | G9U G29A | < 1e-05 | < 1e-05 | < 1e-05 | < 1e-05 | < 1e-05
97 | C8U G37A | < 1e-05 | < 1e-05 |  |  | 
98 | G9A G32C A52U | < 1e-05 |  |  |  | 
99 | G9U C16U G38U G43A | < 1e-05 |  |  |  | 
100 | C11G G41C C50U | < 1e-05 |  |  |  | 
101 | C11A A33G A42U C50G | < 1e-05 | < 1e-05 |  |  | 
102 | G9C U55A | < 1e-05 | < 1e-05 |  | < 1e-05 | < 1e-05
103 | C8U A53U | < 1e-05 | < 1e-05 | < 1e-05 |  | 
